The supplement of paper PMC8728848
The other results are listed elsewhere or left out.

Key:
Test in all cases: glycan array binding signal (z-score within array); higher = stronger binding
Conditions in all cases: glycan notation: IUPAC condensed, linker removed
[1] = molecular target: Gal(b1-4)GlcNAc(b1-2)[Gal(b1-4)GlcNAc(b1-6)]Man(a1-6)[GlcNAc(b1-4)][Gal(b1-4)GlcNAc(b1-2)Man(a1-3)]Man(b1-4)GlcNAc(b1-4)GlcNAc
How it was run: (§1)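 Glycan array binding is given as a within-array Z-score, which can be read as non-binding when negative. The arrays, 3228 of them, came from the Consortium for Functional Glycomics database and were retained only where the protein sequence was available. Z-scores were averaged across arrays of the same protein sequence at different concentrations or buffers and across linkers.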

[2] = molecular target: Gal(b1-4)GlcNAc(b1-2)[Gal(b1-4)GlcNAc(b1-6)]Man(a1-6)[GlcNAc(b1-4)][Gal(b1-4)GlcNAc(b1-2)[Gal(b1-4)GlcNAc(b1-4)]Man(a1-3)]Man(b1-4)GlcNAc(b1-4)[Fuc(a1-6)]GlcNAc
How it was run: as §1

[3] = molecular target: Gal(b1-4)GlcNAc(b1-3)Gal(b1-3)GalNAc
How it was run: as §1

[4] = molecular target: Gal(b1-4)GlcNAc(b1-3)Gal(b1-3)GlcNAc
How it was run: as §1

[5] = molecular target: Gal(b1-4)GlcNAc(b1-3)Gal(b1-4)Glc
How it was run: as §1

[6] = molecular target: Gal(b1-4)GlcNAc(b1-3)Gal(b1-4)GlcNAc
How it was run: as §1

[7] = molecular target: Gal(b1-4)GlcNAc(b1-3)Gal(b1-4)GlcNAc(b1-2)Man(a1-3)[Gal(b1-4)GlcNAc(b1-3)Gal(b1-4)GlcNAc(b1-2)Man(a1-6)]Man(b1-4)GlcNAc(b1-4)GlcNAc
How it was run: as §1

[8] = molecular target: Gal(b1-4)GlcNAc(b1-3)Gal(b1-4)GlcNAc(b1-2)Man(a1-3)[Gal(b1-4)GlcNAc(b1-3)Gal(b1-4)GlcNAc(b1-2)Man(a1-6)]Man(b1-4)GlcNAc(b1-4)[Fuc(a1-6)]GlcNAc
How it was run: as §1

[9] = molecular target: Gal(b1-4)GlcNAc(b1-3)Gal(b1-4)GlcNAc(b1-2)[Gal(b1-4)GlcNAc(b1-3)Gal(b1-4)GlcNAc(b1-6)]Man(a1-6)[Gal(b1-4)GlcNAc(b1-3)Gal(b1-4)GlcNAc(b1-2)Man(a1-3)]Man(b1-4)GlcNAc(b1-4)GlcNAc
How it was run: as §1

[10] = molecular target: Gal(b1-4)GlcNAc(b1-3)Gal(b1-4)GlcNAc(b1-2)[Gal(b1-4)GlcNAc(b1-3)Gal(b1-4)GlcNAc(b1-6)]Man(a1-6)[Gal(b1-4)GlcNAc(b1-3)Gal(b1-4)GlcNAc(b1-2)Man(a1-3)]Man(b1-4)GlcNAc(b1-4)[Fuc(a1-6)]GlcNAc
How it was run: as §1

[11] = molecular target: Gal(b1-4)GlcNAc(b1-3)Gal(b1-4)GlcNAc(b1-3)Gal(b1-4)GlcNAc
How it was run: as §1

[12] = molecular target: Gal(b1-4)GlcNAc(b1-3)Gal(b1-4)GlcNAc(b1-3)Gal(b1-4)GlcNAc(b1-2)Man(a1-3)[Gal(b1-4)GlcNAc(b1-3)Gal(b1-4)GlcNAc(b1-3)Gal(b1-4)GlcNAc(b1-2)Man(a1-6)]Man(b1-4)GlcNAc(b1-4)GlcNAc
How it was run: as §1

[13] = molecular target: Gal(b1-4)GlcNAc(b1-3)Gal(b1-4)GlcNAc(b1-3)Gal(b1-4)GlcNAc(b1-2)Man(a1-3)[Gal(b1-4)GlcNAc(b1-3)Gal(b1-4)GlcNAc(b1-3)Gal(b1-4)GlcNAc(b1-2)Man(a1-6)]Man(b1-4)GlcNAc(b1-4)[Fuc(a1-6)]GlcNAc
How it was run: as §1

[14] = molecular target: Gal(b1-4)GlcNAc(b1-3)Gal(b1-4)GlcNAc(b1-3)Gal(b1-4)GlcNAc(b1-2)[Gal(b1-4)GlcNAc(b1-3)Gal(b1-4)GlcNAc(b1-3)Gal(b1-4)GlcNAc(b1-6)]Man(a1-6)[Gal(b1-4)GlcNAc(b1-3)Gal(b1-4)GlcNAc(b1-3)Gal(b1-4)GlcNAc(b1-2)Man(a1-3)]Man(b1-4)GlcNAc(b1-4)[Fuc(a1-6)]GlcNAc
How it was run: as §1

[15] = molecular target: Gal(b1-4)GlcNAc(b1-3)Gal(b1-4)GlcNAc(b1-3)Gal(b1-4)GlcNAc(b1-3)Gal(b1-4)GlcNAc(b1-2)Man(a1-3)[Gal(b1-4)GlcNAc(b1-3)Gal(b1-4)GlcNAc(b1-3)Gal(b1-4)GlcNAc(b1-3)Gal(b1-4)GlcNAc(b1-2)Man(a1-6)]Man(b1-4)GlcNAc(b1-4)GlcNAc
How it was run: as §1

[16] = molecular target: Gal(b1-4)GlcNAc(b1-3)Gal(b1-4)GlcNAc(b1-3)Gal(b1-4)GlcNAc(b1-3)Gal(b1-4)GlcNAc(b1-2)Man(a1-3)[Gal(b1-4)GlcNAc(b1-3)Gal(b1-4)GlcNAc(b1-3)Gal(b1-4)GlcNAc(b1-3)Gal(b1-4)GlcNAc(b1-2)Man(a1-6)]Man(b1-4)GlcNAc(b1-4)[Fuc(a1-6)]GlcNAc
How it was run: as §1

[17] = molecular target: Gal(b1-4)GlcNAc(b1-3)Gal(b1-4)GlcNAc(b1-3)Gal(b1-4)GlcNAc(b1-3)Gal(b1-4)GlcNAc(b1-2)[Gal(b1-4)GlcNAc(b1-3)Gal(b1-4)GlcNAc(b1-3)Gal(b1-4)GlcNAc(b1-3)Gal(b1-4)GlcNAc(b1-6)]Man(a1-6)[Gal(b1-4)GlcNAc(b1-3)Gal(b1-4)GlcNAc(b1-3)Gal(b1-4)GlcNAc(b1-3)Gal(b1-4)GlcNAc(b1-2)Man(a1-3)]Man(b1-4)GlcNAc(b1-4)[Fuc(a1-6)]GlcNAc
How it was run: as §1

[18] = molecular target: Gal(b1-4)GlcNAc(b1-3)Gal(b1-4)GlcNAc(b1-3)Gal(b1-4)GlcNAc(b1-3)Gal(b1-4)GlcNAc(b1-3)Gal(b1-4)GlcNAc(b1-2)Man(a1-3)[Gal(b1-4)GlcNAc(b1-3)Gal(b1-4)GlcNAc(b1-3)Gal(b1-4)GlcNAc(b1-3)Gal(b1-4)GlcNAc(b1-3)Gal(b1-4)GlcNAc(b1-2)Man(a1-6)]Man(b1-4)GlcNAc(b1-4)GlcNAc
How it was run: as §1

[19] = molecular target: Gal(b1-4)GlcNAc(b1-3)Gal(b1-4)GlcNAc(b1-3)Gal(b1-4)GlcNAc(b1-3)Gal(b1-4)GlcNAc(b1-3)Gal(b1-4)GlcNAc(b1-2)Man(a1-3)[Gal(b1-4)GlcNAc(b1-3)Gal(b1-4)GlcNAc(b1-3)Gal(b1-4)GlcNAc(b1-3)Gal(b1-4)GlcNAc(b1-3)Gal(b1-4)GlcNAc(b1-2)Man(a1-6)]Man(b1-4)GlcNAc(b1-4)[Fuc(a1-6)]GlcNAc
How it was run: as §1

[20] = molecular target: Gal(b1-4)GlcNAc(b1-3)Gal(b1-4)GlcNAc(b1-3)Gal(b1-4)GlcNAc(b1-3)Gal(b1-4)GlcNAc(b1-3)Gal(b1-4)GlcNAc(b1-2)[Gal(b1-4)GlcNAc(b1-3)Gal(b1-4)GlcNAc(b1-3)Gal(b1-4)GlcNAc(b1-3)Gal(b1-4)GlcNAc(b1-3)Gal(b1-4)GlcNAc(b1-6)]Man(a1-6)[Gal(b1-4)GlcNAc(b1-3)Gal(b1-4)GlcNAc(b1-3)Gal(b1-4)GlcNAc(b1-3)Gal(b1-4)GlcNAc(b1-3)Gal(b1-4)GlcNAc(b1-2)Man(a1-3)]Man(b1-4)GlcNAc(b1-4)[Fuc(a1-6)]GlcNAc
How it was run: as §1

[21] = molecular target: Gal(b1-4)GlcNAc(b1-3)Gal(b1-4)GlcNAc(b1-3)Gal(b1-4)GlcNAc(b1-3)Gal(b1-4)GlcNAc(b1-3)Gal(b1-4)GlcNAc(b1-3)Gal(b1-4)GlcNAc(b1-2)Man(a1-3)[Gal(b1-4)GlcNAc(b1-3)Gal(b1-4)GlcNAc(b1-3)Gal(b1-4)GlcNAc(b1-3)Gal(b1-4)GlcNAc(b1-3)Gal(b1-4)GlcNAc(b1-3)Gal(b1-4)GlcNAc(b1-2)Man(a1-6)]Man(b1-4)GlcNAc(b1-4)GlcNAc
How it was run: as §1

[22] = molecular target: Gal(b1-4)GlcNAc(b1-3)Gal(b1-4)GlcNAc(b1-3)GalNAc
How it was run: as §1

[23] = molecular target: Gal(b1-4)GlcNAc(b1-3)Gal(b1-4)GlcNAc(b1-3)[Gal(b1-4)GlcNAc(b1-3)Gal(b1-4)GlcNAc(b1-6)]GalNAc
How it was run: as §1

B1: DrGRIFIN (Danio rerio), Q6DGJ1 (protein)
chain: MTLRFEASCPDGLCPGWSVILKGETPPEASKFEINFLCDRDDRVAFHFNPRFTESDIICNSYMANRWGQEERCNHFPLGVEEPFQIEIYSDNDHFHVYIDKAKVMQYKHRVEDLKTITKLQVVNDVKISSLEITKKLFY
[1]
  glycan array binding signal (z-score): -0.171
[2]
  glycan array binding signal (z-score): -0.136
[3]
  glycan array binding signal (z-score): -0.2
[4]
  glycan array binding signal (z-score): -0.187
[5]
  glycan array binding signal (z-score): 0.006
[6]
  glycan array binding signal (z-score): -0.13
[7]
  glycan array binding signal (z-score): -0.12
[8]
  glycan array binding signal (z-score): -0.185
[9]
  glycan array binding signal (z-score): -0.039
[10]
  glycan array binding signal (z-score): -0.185
[11]
  glycan array binding signal (z-score): -0.163
[12]
  glycan array binding signal (z-score): -0.089
[13]
  glycan array binding signal (z-score): -0.163
[14]
  glycan array binding signal (z-score): -0.101
[15]
  glycan array binding signal (z-score): -0.166
[16]
  glycan array binding signal (z-score): -0.125
[17]
  glycan array binding signal (z-score): -0.177
[18]
  glycan array binding signal (z-score): -0.125
[19]
  glycan array binding signal (z-score): -0.054
[20]
  glycan array binding signal (z-score): -0.151
[21]
  glycan array binding signal (z-score): -0.156
[22]
  glycan array binding signal (z-score): -0.154
[23]
  glycan array binding signal (z-score): -0.074
